# This is one part of the list.
# B1: Epa1 (Candida glabrata) (protein)
# chain: MGSSHHHHHHSSGLVPRGSHMTSSNDISLASKDPTTFPLGCSPDITTPKKGLSMELYSYDFRKKGSYPCWDAAYLDPNYPRTGYKSHRLLAKVDGVTGNINFYYHATKGCTPQLGHLPASYNYPKPLTMTNFTMLLYGYFRPKVTGFHTFTISADDLLFVNFGAGNAFDCCRRDSSADHFGNYQAYAIWGSKTAKDELTVHLDAGVYYPIRLFYNNREYDGALSFTFKTESNENTVSDFSEYFFSLDDTEEGCPGLISYD
# Tests used:
# Test in all cases: glycan array binding signal (z-score within array); higher = stronger binding
# Conditions in all cases: glycan notation: IUPAC condensed, linker removed
# Neu5Ac(a2-3)Gal = target: Neu5Ac(a2-3)Gal
# Summary of the method: (§1)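 Arrays were curated from the Consortium for Functional Glycomics database, 3228 in total, and kept only where the protein sequence was available. Binding is expressed as a within-array Z-score. This score was averaged across arrays of the same protein sequence at different concentrations or buffers and across linkers, and negative values can be read as non-binding.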
# [1] = target: Neu5Ac(a2-3)Gal(b1-3)GalNAc
# Summary of the method: as §1
# [2] = target: Neu5Ac(a2-3)Gal(b1-3)GalNAc(b1-3)Gal(a1-4)Gal(b1-4)Glc
# Summary of the method: as §1
# [3] = target: Neu5Ac(a2-3)Gal(b1-3)GalNAc(b1-4)[Neu5Ac(a2-3)]Gal(b1-4)Glc
# Summary of the method: as §1
# [4] = target: Neu5Ac(a2-3)Gal(b1-3)GalNAc(b1-4)[Neu5Ac(a2-8)Neu5Ac(a2-3)]Gal(b1-4)Glc
# Summary of the method: as §1
# [5] = target: Neu5Ac(a2-3)Gal(b1-3)GalNAc6S
# Summary of the method: as §1
# [6] = target: Neu5Ac(a2-3)Gal(b1-3)GlcNAc
# Summary of the method: as §1
# [7] = target: Neu5Ac(a2-3)Gal(b1-3)GlcNAc(b1-2)Man
# Summary of the method: as §1
# [8] = target: Neu5Ac(a2-3)Gal(b1-3)GlcNAc(b1-2)Man(a1-3)[GlcNAc(b1-4)][Neu5Ac(a2-3)Gal(b1-3)GlcNAc(b1-2)Man(a1-6)]Man(b1-4)GlcNAc(b1-4)GlcNAc
# Summary of the method: as §1
# [9] = target: Neu5Ac(a2-3)Gal(b1-3)GlcNAc(b1-2)Man(a1-3)[Neu5Ac(a2-3)Gal(b1-3)GlcNAc(b1-2)Man(a1-6)]Man(b1-4)GlcNAc(b1-4)GlcNAc
# Summary of the method: as §1
# [10] = target: Neu5Ac(a2-3)Gal(b1-3)GlcNAc(b1-2)[Neu5Ac(a2-3)Gal(b1-3)GlcNAc(b1-4)]Man(a1-6)[Neu5Ac(a2-3)Gal(b1-3)GlcNAc(b1-2)Man(a1-3)]Man(b1-4)GlcNAc(b1-4)GlcNAc
# Summary of the method: as §1
# [11] = target: Neu5Ac(a2-3)Gal(b1-3)GlcNAc(b1-3)Gal(b1-3)GlcNAc
# Summary of the method: as §1
# [12] = target: Neu5Ac(a2-3)Gal(b1-3)GlcNAc(b1-3)Gal(b1-4)GlcNAc
# Summary of the method: as §1
# [13] = target: Neu5Ac(a2-3)Gal(b1-3)GlcNAc(b1-3)GalNAc
# Summary of the method: as §1
# [14] = target: Neu5Ac(a2-3)Gal(b1-3)GlcNAc(b1-4)Gal(b1-4)Glc
# Summary of the method: as §1
# [15] = target: Neu5Ac(a2-3)Gal(b1-3)GlcNAc(b1-6)GalNAc
# Summary of the method: as §1
# [16] = target: Neu5Ac(a2-3)Gal(b1-3)GlcNAc6S
# Summary of the method: as §1
# [17] = target: Neu5Ac(a2-3)Gal(b1-3)[Fuc(a1-4)]GlcNAc
# Summary of the method: as §1
# [18] = target: Neu5Ac(a2-3)Gal(b1-3)[Fuc(a1-4)]GlcNAc(b1-3)Gal(b1-3)[Fuc(a1-4)]GlcNAc
# Summary of the method: as §1
# [19] = target: Neu5Ac(a2-3)Gal(b1-3)[Fuc(a1-4)]GlcNAc(b1-3)Gal(b1-4)[Fuc(a1-3)]GlcNAc
# Summary of the method: as §1
# [20] = target: Neu5Ac(a2-3)Gal(b1-3)[GlcNAc(b1-6)]GalNAc
# Summary of the method: as §1
# [21] = target: Neu5Ac(a2-3)Gal(b1-3)[Neu5Ac(a2-6)]GalNAc
# Summary of the method: as §1
# [22] = target: Neu5Ac(a2-3)Gal(b1-3)[Neu5Ac(a2-6)]GlcNAc(b1-3)[Fuc(a1-3)[Gal(b1-4)]GlcNAc(b1-6)]Gal(b1-4)Glc
# Summary of the method: as §1
# [23] = target: Neu5Ac(a2-3)Gal(b1-3)]Neu5Ac(a2-3)Gal(b1-4)]GlcNAc
# Summary of the method: as §1
# Neu5Ac(a2-3)Gal(b1-4)Glc = target: Neu5Ac(a2-3)Gal(b1-4)Glc
# Summary of the method: as §1
# [24] = target: Neu5Ac(a2-3)Gal(b1-4)GlcNAc
# Summary of the method: as §1
# [25] = target: Neu5Ac(a2-3)Gal(b1-4)GlcNAc(b1-2)Man
# Summary of the method: as §1
# [26] = target: Neu5Ac(a2-3)Gal(b1-4)GlcNAc(b1-2)Man(a1-3)[GlcNAc(b1-4)][Neu5Ac(a2-3)Gal(b1-4)GlcNAc(b1-2)Man(a1-6)]Man(b1-4)GlcNAc(b1-4)GlcNAc
# Summary of the method: as §1
# [27] = target: Neu5Ac(a2-3)Gal(b1-4)GlcNAc(b1-2)Man(a1-3)[Neu5Ac(a2-3)Gal(b1-4)GlcNAc(b1-2)Man(a1-6)]Man(b1-4)GlcNAc(b1-4)GlcNAc
# Summary of the method: as §1
# [28] = target: Neu5Ac(a2-3)Gal(b1-4)GlcNAc(b1-2)Man(a1-3)[Neu5Ac(a2-3)Gal(b1-4)GlcNAc(b1-2)Man(a1-6)]Man(b1-4)GlcNAc(b1-4)[Fuc(a1-6)]GlcNAc
# Summary of the method: as §1
# [29] = target: Neu5Ac(a2-3)Gal(b1-4)GlcNAc(b1-2)Man(a1-3)[Neu5Ac(a2-6)Gal(b1-4)GlcNAc(b1-2)Man(a1-6)]Man(b1-4)GlcNAc(b1-4)GlcNAc
# Summary of the method: as §1
# [30] = target: Neu5Ac(a2-3)Gal(b1-4)GlcNAc(b1-2)[Neu5Ac(a2-3)Gal(b1-4)GlcNAc(b1-4)]Man(a1-3)[GlcNAc(b1-4)][Neu5Ac(a2-3)Gal(b1-4)GlcNAc(b1-2)[Neu5Ac(a2-3)Gal(b1-4)GlcNAc(b1-6)]Man(a1-6)]Man(b1-4)GlcNAc(b1-4)GlcNAc
# Summary of the method: as §1
# [31] = target: Neu5Ac(a2-3)Gal(b1-4)GlcNAc(b1-2)[Neu5Ac(a2-3)Gal(b1-4)GlcNAc(b1-4)]Man(a1-3)[GlcNAc(b1-4)][Neu5Ac(a2-3)Gal(b1-4)GlcNAc(b1-4)Man(a1-6)]Man(b1-4)GlcNAc(b1-4)GlcNAc
# Summary of the method: as §1
# [32] = target: Neu5Ac(a2-3)Gal(b1-4)GlcNAc(b1-2)[Neu5Ac(a2-3)Gal(b1-4)GlcNAc(b1-6)]Man(a1-6)[Neu5Ac(a2-3)Gal(b1-4)GlcNAc(b1-2)Man(a1-3)][GlcNAc(b1-4)]Man(b1-4)GlcNAc(b1-4)GlcNAc
# Summary of the method: as §1
# [33] = target: Neu5Ac(a2-3)Gal(b1-4)GlcNAc(b1-3)Gal
# Summary of the method: as §1
# [34] = target: Neu5Ac(a2-3)Gal(b1-4)GlcNAc(b1-3)Gal(b1-3)GlcNAc
# Summary of the method: as §1
# [35] = target: Neu5Ac(a2-3)Gal(b1-4)GlcNAc(b1-3)Gal(b1-4)GlcNAc
# Summary of the method: as §1
binder,measurement,setting,value
B1,glycan array binding signal (z-score),Neu5Ac(a2-3)Gal,-0.294
same,glycan array binding signal (z-score),[1],-0.339
same,glycan array binding signal (z-score),[2],-0.301
same,glycan array binding signal (z-score),[3],-0.293
same,glycan array binding signal (z-score),[4],-0.29
same,glycan array binding signal (z-score),[5],-0.26
same,glycan array binding signal (z-score),[6],-0.295
same,glycan array binding signal (z-score),[7],-0.302
same,glycan array binding signal (z-score),[8],-0.267
same,glycan array binding signal (z-score),[9],-0.325
same,glycan array binding signal (z-score),[10],-0.284
same,glycan array binding signal (z-score),[11],-0.4
same,glycan array binding signal (z-score),[12],-0.348
same,glycan array binding signal (z-score),[13],-0.295
same,glycan array binding signal (z-score),[14],-0.35
same,glycan array binding signal (z-score),[15],-0.293
same,glycan array binding signal (z-score),[16],-0.295
same,glycan array binding signal (z-score),[17],-0.296
same,glycan array binding signal (z-score),[18],-0.318
same,glycan array binding signal (z-score),[19],-0.238
same,glycan array binding signal (z-score),[20],-0.299
same,glycan array binding signal (z-score),[21],-0.166
same,glycan array binding signal (z-score),[22],-0.173
same,glycan array binding signal (z-score),[23],-0.296
same,glycan array binding signal (z-score),Neu5Ac(a2-3)Gal(b1-4)Glc,-0.266
same,glycan array binding signal (z-score),[24],-0.268
same,glycan array binding signal (z-score),[25],-0.258
same,glycan array binding signal (z-score),[26],-0.289
same,glycan array binding signal (z-score),[27],-0.256
same,glycan array binding signal (z-score),[28],-0.283
same,glycan array binding signal (z-score),[29],-0.269
same,glycan array binding signal (z-score),[30],-0.332
same,glycan array binding signal (z-score),[31],-0.317
same,glycan array binding signal (z-score),[32],-0.338
same,glycan array binding signal (z-score),[33],-0.288
same,glycan array binding signal (z-score),[34],-0.304
same,glycan array binding signal (z-score),[35],-0.304

# From the supplement of paper PMC8728848
